The whole screen tested about 310,000 compounds, of which about 2,200 (0.71%) showed an effect of 50% or more. Effects have a minus sign here. This is one part of the list.
The compounds below were run against human ether-à-go-go-related gene (hERG) potassium channel (human, UniProt Q12809) (assay: primary screen, population patch clamp on CHO cells stably expressing hERG).
Sequence of human ether-à-go-go-related gene (hERG) potassium channel (Q12809 whole entry, looked up): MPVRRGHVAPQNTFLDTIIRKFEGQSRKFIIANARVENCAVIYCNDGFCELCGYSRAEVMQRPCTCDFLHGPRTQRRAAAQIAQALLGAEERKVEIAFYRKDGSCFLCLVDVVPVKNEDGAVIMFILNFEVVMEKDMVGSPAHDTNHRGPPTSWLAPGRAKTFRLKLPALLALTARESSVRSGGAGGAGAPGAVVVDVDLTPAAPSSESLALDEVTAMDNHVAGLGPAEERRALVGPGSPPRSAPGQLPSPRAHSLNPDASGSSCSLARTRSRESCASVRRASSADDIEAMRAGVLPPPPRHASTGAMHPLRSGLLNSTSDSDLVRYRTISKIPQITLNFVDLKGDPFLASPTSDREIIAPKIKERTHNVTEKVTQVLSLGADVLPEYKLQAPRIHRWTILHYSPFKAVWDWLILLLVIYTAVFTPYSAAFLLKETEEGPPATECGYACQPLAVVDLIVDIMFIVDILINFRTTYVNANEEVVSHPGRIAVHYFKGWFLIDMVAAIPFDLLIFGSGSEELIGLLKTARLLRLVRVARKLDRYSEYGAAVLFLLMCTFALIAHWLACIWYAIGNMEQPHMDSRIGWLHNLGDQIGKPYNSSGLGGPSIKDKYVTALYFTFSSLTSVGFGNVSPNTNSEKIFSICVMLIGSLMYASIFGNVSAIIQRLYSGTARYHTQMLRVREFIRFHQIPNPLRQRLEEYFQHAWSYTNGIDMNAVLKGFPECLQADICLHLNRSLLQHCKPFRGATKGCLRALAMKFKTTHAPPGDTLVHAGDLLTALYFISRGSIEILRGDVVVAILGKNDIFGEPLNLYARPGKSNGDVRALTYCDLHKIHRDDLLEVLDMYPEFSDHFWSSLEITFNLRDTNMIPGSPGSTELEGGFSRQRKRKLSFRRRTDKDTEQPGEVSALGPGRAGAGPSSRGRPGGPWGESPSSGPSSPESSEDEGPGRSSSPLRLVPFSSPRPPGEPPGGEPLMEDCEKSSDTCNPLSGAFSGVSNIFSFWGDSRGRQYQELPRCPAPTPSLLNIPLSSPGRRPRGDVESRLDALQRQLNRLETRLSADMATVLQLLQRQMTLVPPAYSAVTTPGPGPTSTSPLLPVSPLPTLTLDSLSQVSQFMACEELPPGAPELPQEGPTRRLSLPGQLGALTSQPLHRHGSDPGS

SMILES	hERG current change (%, negative = inhibition) at 1uM [%]
Cc1cc(C)nc(N(C#N)Cc2ccc(Br)cc2)n1	20.7
O=C1N/C(=N\N=C\c2ccco2)SC1Cc1ccccc1[N+](=O)[O-] (stereo not shown)	7.2
Cc1ccccc1NC(=O)NCC1CCN(Cc2cccc(Cl)c2)CC1	-20.1
Cc1ccc(C(C(=O)NC(C)(C)C)N(CC2CCCO2)C(=O)c2csnn2)cc1 (stereo not shown)	-1.23
N#Cc1ccc(N2Cc3ccccc3/C2=N/C(=O)Nc2ccc(Cl)cc2)cc1	1.36
c1ccc(OCCCn2ccnc2)cc1	16.4
CCCCOc1ccc(N(CC(=O)NC(C)C)C(=O)CCC(=O)Nc2ccccn2)cc1	17.1
Cc1ccc(C(=O)Nc2ccc3c(c2)C(=O)N(C)C3=O)c(C)c1	7.33
CCCN1CCN(S(=O)(=O)c2ccc3c(c2)NC(=O)C(C)C(=O)N3)CC1 (stereo not shown)	9.95
CC(NS(=O)(=O)/C=C/c1ccccc1)C(=O)O (stereo not shown)	12.5
O=C(NC(=S)Nc1ccccc1N1CCCC1)c1ccccc1[N+](=O)[O-]	15.7
N#CC(c1ccc(Cl)cc1)c1ccc(Cl)nn1 (stereo not shown)	10.9
COc1c(C)cc(Br)cc1C(=O)Nc1ccc(C)cc1[N+](=O)[O-]	24.9
Cc1ccccc1NC(=O)c1ccc(S(=O)(=O)C(F)F)cc1	-0.555
COc1ccc(CC(=O)N2CCc3cc(OC)c(OC)cc3C2)cc1	-10.1
COc1ccc(C(=O)N2CC=C(c3ccccc3)CC2)cc1S(=O)(=O)N1CCOCC1	5.5
Cc1ccc(-c2[nH]nc3c2C(c2cccnc2)C(C#N)=C(N)O3)cc1 (stereo not shown)	9.23
COc1ccc(CC(=O)Nc2ccccc2N2CCCC2)cc1OC	4.24
CCCc1nnc(NC(=O)CCC(=O)N2CCC(Cc3ccccc3)CC2)s1	2.63
Cc1ccc2c(CN3CCN(CCO)CC3)cc(=O)oc2c1	-52.1
CCc1cc2c(NCCC(=O)O)ncnc2s1	8.78
COc1cc2c(cc1OC)-c1nncn1C(C)(C)C2	5.38

SMILES	hERG current change (%, negative = inhibition) at 1uM [%]
COc1cc(OC)c(C(=O)O/N=C(\N)c2ccccn2)cc1OC	14.7
CCOC(=O)c1ccc(-n2ccnc2)c(NC(=O)c2ccc(Cl)cc2)c1	-44.6
COc1cc(/C=C/C(=O)OCC(=O)N(C)C2CCS(=O)(=O)C2)ccc1OC(F)F (stereo not shown)	7.09
Cc1cccnc1NC(=O)Cn1nc(-c2ccccc2)oc1=S	4.63
CCN(CC)S(=O)(=O)c1ccc2c(c1)nc(SCC(=O)N1CCCCCC1)n2-c1ccc(OC)cc1	11.9
COC(=O)C(NC(C)=O)(Nc1ccccc1)C(=O)OC	15.2
CC(C)(C)NC(=O)NC(=O)CN1C(=O)NC(C)(c2ccccc2)C1=O (stereo not shown)	14.3
CCC(N)C12CC3CC(CC(O)(C3)C1)C2.Cl (stereo not shown)	7.25
CCc1ccc2nc3sc(C(=O)N4CCc5ccccc54)c(N)c3cc2c1	7.82
Cc1cc(CN(C)C(=O)c2ccc(OC3CCN(S(=O)(=O)N(C)C)CC3)cc2)n[nH]1	5.84
O=C(NNc1nc2ccccc2s1)Nc1ccc(Cl)c(Cl)c1	36.3
Cc1ccc(C(=O)NC(C)C2CC3CCC2C3)c(C)c1 (stereo not shown)	12
O=C(COc1ccccc1)NC(NC(=S)Nc1ccccc1C(=O)O)C(Cl)(Cl)Cl (stereo not shown)	12.1
Cc1ccccc1C(=O)Nc1ccc2c(c1)nc(CCNC(=O)c1ccco1)n2C	1.04
CCC(C)Nc1nc2c(c(=O)[nH]c(=O)n2C)n1CCCc1ccccc1 (stereo not shown)	7.59
C=CCn1c(O)c(N=NC(=O)OCC)c2ccccc21	8.98
COc1ccc(N(C(=O)c2snc(C(N)=O)c2N)C(C(=O)NC2CCCCC2)c2ccc(F)cc2)c(OC)c1 (stereo not shown)	4.02
CC1(c2ccc([N+](=O)[O-])cc2)NC(=O)N(CC(=O)c2ccc3c(c2)OCO3)C1=O (stereo not shown)	2.7
CCn1c2ccccc2c2cc(/C=N/NC(=O)c3ccc(O)cc3)ccc21	-0.487
Cc1ccccc1C(=O)NC(CC(C)C)C(=O)NN1C(=O)c2ccccc2C1=O (stereo not shown)	16.6
CCOc1ccc(NC(=O)CCc2nnc3ccc(N4CCN(C)CC4)nn23)cc1	14.8
COC(=O)COc1ccc(S(=O)(=O)N2CCOCC2)cc1C	0.607

SMILES	hERG current change (%, negative = inhibition) at 1uM [%]
Cc1ccc(CNC(=O)CN2CCCC(C)C2)cc1 (stereo not shown)	-0.491
O=C(COC(=O)[C@H](Cc1ccccc1)NC(=O)c1cccs1)Nc1ccccc1C(F)(F)F	5.58
O=C(NN=C1CCN(Cc2ccccc2)CC1)C(O)c1ccccc1 (stereo not shown)	3.77
CCNC(=O)CC1C(=O)N(c2ccc(OC)cc2)C(=O)N1CCOC (stereo not shown)	10.1
CC(=NCc1cccnc1)c1c(O)n(-c2ccc(C)cc2)c(=O)[nH]c1=O	-0.929
Cn1c(=O)oc2cc(S(=O)(=O)NCc3ccc(F)cc3)ccc21	-14.6
O=C(NCC1CCN(c2ccc(S(=O)(=O)N3CCOCC3)cc2)CC1)c1cccc(Cl)c1	12.3
COc1ccc(-c2nc(CS(=O)CC(=O)NC3CCCc4ccccc43)c(C)o2)cc1OC (stereo not shown)	9.45
CC(C)OC(=O)c1cn(-c2ccccc2)nc1-c1ccco1	11.7
Cc1ccc2occ(C(c3nnnn3C3CCCC3)N3CCN(C(=O)c4ccco4)CC3)c(=O)c2c1 (stereo not shown)	1.05
CCCCOP(=O)(OCCCC)C(O)c1ccc(F)cc1 (stereo not shown)	10
COc1ccc(CCN2C(=O)C3C4CC(C5C(C(=O)N/N=C\c6ccc(Cl)cc6)=NOC45)C3C2=O)cc1OC (stereo not shown)	-12.8
Cn1c(SCc2nc(-c3ccccc3)no2)nnc1-c1cccs1	3.52
CC(C)(C)C(=O)OCCn1c(=O)c2cc3c(=O)n(CCOC(=O)C(C)(C)C)c(=O)c3cc2c1=O	18
COCC1CCCN(Cc2nc(Cc3ccccc3)no2)C1 (stereo not shown)	11.6
Cc1cc2oc(C(=O)N(Cc3ccccc3)C3CCS(=O)(=O)C3)c(C)c2cc1C (stereo not shown)	16.2
Cc1noc(C)c1C(=O)NCc1ccco1	7.86
CCOc1ccc(S(=O)(=O)NNC(=S)Nc2ccc(Br)cc2)cc1	5.39
Cc1cc(-c2ccc(C)c(S(=O)(=O)NCC3CCN(Cc4ccc(F)cc4)CC3)c2)on1	-7.78
c1ccc(C(Cc2nc(-c3ccncc3)no2)c2ccccc2)cc1	12.5
Cn1ccnc1Sc1nc2ccccc2nc1NS(=O)(=O)c1ccccc1	17.4
Cc1[nH]c(=O)c(C#N)c(C)c1CCC(=O)NCc1cccc(C(F)(F)F)c1	18.4

SMILES	hERG current change (%, negative = inhibition) at 1uM [%]
O=C(CSc1nccc(=O)[nH]1)c1ccccc1Br	4.66
Cc1[nH]c(C)c(S(=O)(=O)N(Cc2ccccc2)C(C)C)c1C(=O)N1CCCC1	9.26
O=C(CCNc1ccc(Br)cc1)c1cccc([N+](=O)[O-])c1	11.1
Cc1cccc(-n2c(Cc3cc(=O)[nH]c(=O)[nH]3)nnc2SCC(=O)N2CCc3ccccc32)c1	4.78
O=C(C(Cc1ccccc1)n1cccc1)N1CCc2ccccc21 (stereo not shown)	8.86
CSCCC(NC(=O)c1ccccc1)C(=O)N1CCCCCCC1 (stereo not shown)	5.59
CC1CCCCC12NC(=O)N(CC(=O)c1ccc3c(c1)OCO3)C2=O (stereo not shown)	-1.54
O=C(c1cccc(Oc2c(Cl)cccc2[N+](=O)[O-])c1)N1CCCCC1	10.5
O=C(C(c1ccccc1)c1ccccc1)N(Cc1ccco1)C1CCS(=O)(=O)C1 (stereo not shown)	10
N#C/C(=C\c1cccnc1)c1nc2ccccc2[nH]1	13
CCC(=O)OCC(=O)N=c1sccn1Cc1ccc(C)cc1	11.2
CN1C(=S)N(c2ccccc2)C(=O)/C1=C/c1ccco1	10.6
CCOc1cc(C2NC(=O)NC2=O)ccc1O (stereo not shown)	17.3
COCCCNC(=O)/C(C#N)=C/c1c(N2CCN(c3ccccc3)CC2)nc2ccccn2c1=O	3.99
CCCc1cc(CNC(=O)C2CCC(=O)N(Cc3ccccc3OC)C2)on1 (stereo not shown)	12.2
CCOC(=O)CNc1nc(C(C)(C)C)nc2c1nnn2Cc1ccccc1Cl	9.99
Cc1cnc(NC(=O)CC2CCCC2)s1	14.3
CC(=O)N1CCN(c2nc3ccc(Br)cc3s2)CC1	-3.45
O=C(CCCn1cnc([N+](=O)[O-])n1)Nc1ccc(F)c(Cl)c1	9.69
CC1CCCCC1NC(=O)c1cccc(N2C(=O)C3C4C=CC(C4)C3C2=O)c1 (stereo not shown)	11.8
CC(C)(C)OC(=O)Nc1ccc([C@H](NC(=O)OC(C)(C)C)C(=O)OC(C)(C)C)cc1	10.1
N#C/C(=C\c1ccc(O)c(Br)c1)C(=O)NCc1ccccc1	4.88

Reference: article PMC4336329 (PLoS ONE, 2015)
